Substrate in this data set: C=CC(=O)Nc1cc(Nc2nccc(-c3cn(C4CC4)c4ccccc34)n2)c(OC)cc1N(C)CCN(C)C
The data set can be described thus: cells, lysate or membranes named.

Where [1] appears, read: other: variant *24, substrate aumolertinib.
[2] abbreviates: other: variant *5, substrate aumolertinib.
[3] abbreviates: other: variant *3, substrate aumolertinib.
Setting [4] is: other: variant *1 (wild type), substrate aumolertinib.
The mark [5] stands for this setting: other: variant *4, substrate aumolertinib.
Setting [6] is: other: variant *32 (*I335T), substrate aumolertinib.
[7] abbreviates: other: variant *33 (*A370S), substrate aumolertinib.
[8] abbreviates: other: variant *9, substrate aumolertinib.
Where [9] appears, read: other: variant *29 (*F113I), substrate aumolertinib.
The mark [10] stands for this setting: other: variant *34 (*I427V), substrate aumolertinib.
[11] abbreviates: other: variant *8, substrate aumolertinib.
Where [12] appears, read: other: variant *7, substrate aumolertinib.
Setting [13] is: other: variant *28 (*L22V), substrate aumolertinib.
Where [14] appears, read: other: variant *31 (*H324Q), substrate aumolertinib.

Changes are numbered by the printed parent chain. Numbers in names are those of the source.

B1: CYP3A4.24 (Homo sapiens; Q200H) (protein)
chain: MALIPDLAMETWLLLAVSLVLLYLYGTHSHGLFKKLGIPGPTPLPFLGNILSYHKGFCMFDMECHKKYGKVWGFYDGQQPVLAITDPDMIKTVLVKECYSVFTNRRPFGPVGFMKSAISIAEDEEWKRLRSLLSPTFTSGKLKEMVPIIAQYGDVLVRNLRREAETGKPVTLKDVFGAYSMDVITSTSFGVNIDSLNNPHDPFVENTKKLLRFDFLDPFFLSITVFPFLIPILEVLNICVFPREVTNFLRKSVKRMKESRLEDTQKHRVDFLQLMIDSQNSKETESHKALSDLELVAQSIIFIFAGYETTSSVLSFIMYELATHPDVQQKLQEEIDAVLPNKAPPTYDTVLQMEYLDMVVNETLRLFPIAMRLERVCKKDVEINGMFIPKGVVVMIPSYALHRDPKYWTEPEKFLPERFSKKNKDNIDPYIYTPFGSGPRNCIGMRFALMNMKLALIRVLQNFSFKPCKETQIPLKLSLGGLLQPEKPVVLKVESRDGTVSGA
Regarding B1, under setting [1], the Km came out at 3.732 ± 0.252 µM, the kcat was determined as 0.0169 s⁻¹ and the kcat/Km was determined as 4520 M⁻¹ s⁻¹.

B2: CYP3A4.5 (Homo sapiens; P218R) (protein)
chain: B1 chain with H200Q, P218R
On to B2, for which, under setting [2], the Michaelis constant (Km) was found to be 10.144 ± 0.833 µM, the kcat stood at 0.0314 s⁻¹ and the catalytic efficiency (kcat/Km) stood at 3100 M⁻¹ s⁻¹.

B3: CYP3A4.3 (Homo sapiens; M445T) (protein)
chain: B1 chain with H200Q, M445T
Regarding B3, under setting [3], the Km turned out to be 3.631 ± 0.149 µM, the kcat worked out at 0.0337 s⁻¹ and the kcat/Km was determined as 9280 M⁻¹ s⁻¹.

B4: CYP3A4.1 (Homo sapiens) (protein)
chain: B1 chain with H200Q
Take B4: under setting [4], the Km worked out at 3.204 ± 0.202 µM, the kcat was 0.0311 s⁻¹ and the kcat/Km amounted to 9720 M⁻¹ s⁻¹.

B5: CYP3A4.4 (Homo sapiens; I118V) (protein)
chain: B1 chain with I118V, H200Q
Take B5: under setting [5], the Km came to 3.952 ± 0.389 µM, the kcat was 0.0192 s⁻¹ and the catalytic efficiency (kcat/Km) was found to be 4880 M⁻¹ s⁻¹.

B6: CYP3A4.32 (Homo sapiens; I335T) (protein)
chain: B1 chain with H200Q, I335T
For the protein B6, under setting [6], the Michaelis-Menten constant (Km) came out at 2.963 ± 0.092 µM, the kcat stood at 0.0293 s⁻¹ and the kcat/Km is 9900 M⁻¹ s⁻¹.

B7: CYP3A4.33 (Homo sapiens; A370S) (protein)
chain: B1 chain with H200Q, A370S
Turning to B7, under setting [7], the Km worked out at 3.520 ± 0.403 µM, the kcat is 0.0224 s⁻¹ and the kcat/Km was 6400 M⁻¹ s⁻¹.

B8: CYP3A4.9 (Homo sapiens; V170I) (protein)
chain: B1 chain with V170I, H200Q
B8: under setting [8], the Km turned out to be 4.080 ± 0.370 µM, the kcat came out at 0.0213 s⁻¹ and the kcat/Km stood at 5250 M⁻¹ s⁻¹.

B9: CYP3A4.29 (Homo sapiens; F113I) (protein)
chain: B1 chain with F113I, H200Q
On to B9, for which, under setting [9], the Km worked out at 4.031 ± 0.319 µM, the kcat worked out at 0.0509 s⁻¹ and the kcat/Km is 12600 M⁻¹ s⁻¹.

B10: CYP3A4.34 (Homo sapiens; I427V) (protein)
chain: B1 chain with H200Q, I427V
For B10, under setting [10], the Km was 5.817 ± 0.439 µM, the kcat amounted to 0.0122 s⁻¹ and the kcat/Km is 2100 M⁻¹ s⁻¹.

B11: CYP3A4.8 (Homo sapiens; R130Q) (protein)
chain: B1 chain with R130Q, H200Q
Turning to B11, under setting [11], the Km worked out at 3.158 ± 0.077 µM, the catalytic constant (kcat) worked out at 0.0119 s⁻¹ and the kcat/Km was 3780 M⁻¹ s⁻¹.

B12: CYP3A4.7 (Homo sapiens; G56D) (protein)
chain: B1 chain with G56D, H200Q
Consider B12, for which, under setting [12], the Km was 4.937 ± 0.649 µM, the kcat came out at 0.00628 s⁻¹ and the kcat/Km was 1280 M⁻¹ s⁻¹.

B13: CYP3A4.28 (Homo sapiens; L22V) (protein)
chain: B1 chain with L22V, H200Q
B13: under setting [13], the Km was found to be 2.519 ± 0.054 µM, the kcat was found to be 0.0214 s⁻¹ and the catalytic efficiency (kcat/Km) came out at 8520 M⁻¹ s⁻¹.

B14: CYP3A4.31 (Homo sapiens; H324Q) (protein)
chain: B1 chain with H200Q, H324Q
For the protein B14, under setting [14], the Km was found to be 3.213 ± 0.502 µM, the kcat was 0.0188 s⁻¹ and the catalytic efficiency (kcat/Km) is 5930 M⁻¹ s⁻¹.

The values above are taken from publication PMC11157048, “The influence of drug-induced metabolic enzyme activity inhibition and CYP3A4 gene polymorphism on aumolertinib metabolism” (Frontiers in Pharmacology, 2024).
